Data on 121 sequences can be found in the supplement of paper PMC10126150.

Sequences with one replicate were seen in a single cluster, so their values are uncertain.
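Further: ATP exposure 15 min at 22 °C before imaging.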

This data set concerns ATP. Description: switch fluorescence ratio, 500 uM ATP over buffer (Cy3 cluster intensity, sum of 5 cycles each) (fold (ratio)); higher = stronger signal-on switching upon ATP binding; sequences stand for … in TCGTCGGCAGCGTCAGATGTGTATAAGAGACAGTTTTTTTTTTTTTTTTTTTTTTTTT…TC. Particulars: aptamer strand: ATP DNA aptamer (quencher-CACCTGGGGGAGTATTGCGGAGGAAGG + anchor), 100 nM annealed; ATP concentration: 500 uM; one replicate. In short, it runs like this:
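Clusters with intensities outside 100-1000 RFU were excluded. The remaining Cy3-labelled switching-strand clusters on a modified Illumina MiSeq flow-cell had been annealed to 100 nM quencher-labelled ATP aptamer and imaged in selection buffer, then after 15 min with 500 uM ATP at 22 °C, for five cycles separated by NaOH stripping and re-annealing. The fluorescence ratio, averaged per switch-domain sequence, is each cluster's summed target-cycle Cy3 intensity over its summed buffer-cycle Cy3 intensity.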
Turning to GGTGACAGGG, the switch fluorescence ratio worked out at 0.993.

As for GGTCGTTGAG, the switch fluorescence ratio is 0.994. As for ATTACGCTTG, the switch fluorescence ratio came out at 1.02. For TTGGCCGACA, the switch fluorescence ratio was found to be 1.01. Regarding GCTTCGGCCA, the switch fluorescence ratio was found to be 1.04. The result for TGCACGCATG reads 1.04; that for ATGAGATGAC, 1.06. Turning to GGGATACACT, the switch fluorescence ratio amounted to 1.09. Regarding GGACCGGTGC, the switch fluorescence ratio came to 1.01. As for GGTCATAAGG, the switch fluorescence ratio was 1.01. In the case of CTGTAGAGC, the switch fluorescence ratio turned out to be 1.07.

As to AGCCTGATTG, the switch fluorescence ratio came to 0.968.

Take AACCGGTGGG: the switch fluorescence ratio turned out to be 0.966. Consider TGGTCACGTG, for which the switch fluorescence ratio stood at 1.05. In the case of TGGCTTAATT, the switch fluorescence ratio was determined as 1.03.

In the case of CACCTGCTTT, the switch fluorescence ratio was 1.01. Turning to TCGTGTCTCT, the switch fluorescence ratio stood at 1.01. Regarding GAGTACTGCT, the switch fluorescence ratio is 0.984.

Regarding GTCAATCCTG, the switch fluorescence ratio amounted to 1.01. TCCAATGGGG: the switch fluorescence ratio was found to be 0.996. TATTCGCGTT: the switch fluorescence ratio was 1.15.

As to TGTGACGAGA, the switch fluorescence ratio was 1.05.

For the sequence GTGGATGAGA, the switch fluorescence ratio was 0.983. On to TATTTGTTGA, for which the switch fluorescence ratio came out at 1.02. For GCGGACGCGC, the switch fluorescence ratio was 1.01. As to TGGATGAA, the switch fluorescence ratio was determined as 0.968.

Regarding ATCGATAGAT, the switch fluorescence ratio was determined as 0.974. The result for AGGACGCGGG reads 0.993; that for TTCCGATAAA, 1.12.

In the case of GTTAAAAAAG, the switch fluorescence ratio was 0.986. Consider GATCGTCATC, for which the switch fluorescence ratio is 0.999. In the case of TGATCGGAAA, the switch fluorescence ratio was determined as 0.991. For ATCGGGTCGC, the switch fluorescence ratio turned out to be 1.

On to AGAGGCATTG, for which the switch fluorescence ratio came to 1.05.

As to AGGTAGCTGC, the switch fluorescence ratio stood at 1.04. The result for CGGTAAAACC reads 1.04; that for ACTGTTCCGC, 2.01; that for CGAAATTCA, 0.971.

As to GGTAACGGA, the switch fluorescence ratio stood at 1.07. On to TGGAATGACT, for which the switch fluorescence ratio amounted to 1.01.

As for ATCCTAGGAG, the switch fluorescence ratio came to 0.992. The result for GTTGCAAAAT reads 1.02. For ACATATACAA the value was 1.1; for GGAACTTT, 0.962.

In the case of TAGTGCAC, the switch fluorescence ratio turned out to be 0.985.

Consider AAAGACCAAT, for which the switch fluorescence ratio turned out to be 1.01.

As to CTACTTTACG, the switch fluorescence ratio worked out at 1.26. ATCTCTATTA: the switch fluorescence ratio was 0.937.

In the case of CCAATGTACA, the switch fluorescence ratio came out at 1.03. The result for AGGTTCGTTT reads 1.01; that for TACCAACCGC, 1.27; that for AGGCATCGAG, 1.02. For ATGTTTCTTC the value was 0.971.

For TACGTGCAAA, the switch fluorescence ratio was determined as 1.09. With TTCAAATTTC, the switch fluorescence ratio stood at 1.02. In the case of AACGGATA, the switch fluorescence ratio amounted to 1.04. ACTTTATATA: the switch fluorescence ratio was found to be 1.07. Turning to CCCGAACTGT, the switch fluorescence ratio came to 0.973. For TGGATTTATG, the switch fluorescence ratio amounted to 0.987.

For ACTGTTATGC, the switch fluorescence ratio amounted to 1.11. For TATGAAAAGC the value was 1; for CGCCGGTCTG, 0.998; for AGACATTAAG, 0.983. ACCTTATTAT: the switch fluorescence ratio is 1.04. As for TAACATTGGG, the switch fluorescence ratio amounted to 0.964. On to CAGTCGGTCC, for which the switch fluorescence ratio was found to be 0.968. TGTGTACGTT: the switch fluorescence ratio is 1.03. Turning to AACAGTAGGA, the switch fluorescence ratio is 1.

With TAGACTCATA, the switch fluorescence ratio came to 0.983.

With CTGGTCTACG, the switch fluorescence ratio was determined as 0.968. For the sequence GCGACCGACG, the switch fluorescence ratio was found to be 2.25. Consider CATCTATCGG, for which the switch fluorescence ratio amounted to 1.07. With GTGCGAAGCA, the switch fluorescence ratio is 1.02. For TCATATTGAG, the switch fluorescence ratio came to 0.992. Take CACACAGGTA: the switch fluorescence ratio was 1.83.

On to CGGGTGCGAA, for which the switch fluorescence ratio stood at 1.01. The result for GGCCTAGAAC reads 0.992; that for CGATACT, 1.05; that for GAGTGCTAAG, 1. The result for TTATTTAT reads 0.996. Consider GCCTGGAGAT, for which the switch fluorescence ratio came to 0.969. With AGACAGCCCC, the switch fluorescence ratio amounted to 1.05. In the case of GAGGGTGGT, the switch fluorescence ratio amounted to 1.07. TATAGTCGGC: the switch fluorescence ratio turned out to be 1.01.

Regarding TTCTCTGACA, the switch fluorescence ratio was 1.09.

For the sequence TGGGTCGAGT, the switch fluorescence ratio came out at 1. As to AGTCTGTGGG, the switch fluorescence ratio worked out at 1.01. Take CATGATAGCC: the switch fluorescence ratio came to 0.933. ATATTTCG: the switch fluorescence ratio was 1.03. ACGGGCCAGG: the switch fluorescence ratio was determined as 1.49. The result for TGGCTTGGGC reads 0.952. With ACAGACTCTC, the switch fluorescence ratio was determined as 1.09.

Consider ACTTGTTGAT, for which the switch fluorescence ratio was found to be 1.01.

As for CGTGGATGAT, the switch fluorescence ratio stood at 0.931. As to GAAAATACGG, the switch fluorescence ratio turned out to be 1.01. The result for TGGGGACCAA reads 0.996; that for AGGAGGTGT, 1.01; that for AAGCAGGCAG, 1.03.

For CGCAGCCTTG, the switch fluorescence ratio stood at 1.05. Turning to CTTTAATAGC, the switch fluorescence ratio was found to be 1.03. The result for AATCACGG reads 1.05. As to CTCGCTTAGC, the switch fluorescence ratio worked out at 1.26.

Take GAACTACCCC: the switch fluorescence ratio was 1.19. On to CTCACCGAGT, for which the switch fluorescence ratio turned out to be 1. The result for TTGTGCGTGT reads 1. In the case of ACTGGTCTGA, the switch fluorescence ratio turned out to be 1.02. Regarding CCGTAACCAC, the switch fluorescence ratio is 2.92. CGGGGCATGA: the switch fluorescence ratio was 0.954.

Take GCCCTTTGTA: the switch fluorescence ratio was determined as 0.98.

CCTGTGTGAA: the switch fluorescence ratio amounted to 0.972. Consider ATCAAACCGC, for which the switch fluorescence ratio worked out at 1.32. Take CAGAGCTTAT: the switch fluorescence ratio was found to be 1.13. In the case of GATCCTTTGA, the switch fluorescence ratio was found to be 0.961. For ATCGTGGCAT the value was 0.931; for AGTTGATAAT, 0.969.

Regarding AGGACGGGTG, the switch fluorescence ratio came out at 1.01. As to TTCAGGAGGC, the switch fluorescence ratio is 1.01. On to TAGGTGCCAT, for which the switch fluorescence ratio is 1.02.

Consider AGTTGGAGAA, for which the switch fluorescence ratio stood at 0.972. In the case of AAGTTGAAGT, the switch fluorescence ratio was 0.949. Regarding CTCATCCCAG, the switch fluorescence ratio is 2.14.
